In patent publication US20210206855A1 (ADAGENE, published 2021):

How the values were obtained:
Assay in all cases: flow cytometry on yeast displaying CTLA4; Normalized FACS Bound, human WT = 1
mouse CD86 = biological target: T1, mouse CD86 (mouse, UniProt P42082 24-244, limits assumed)
T1 sequence (looked up): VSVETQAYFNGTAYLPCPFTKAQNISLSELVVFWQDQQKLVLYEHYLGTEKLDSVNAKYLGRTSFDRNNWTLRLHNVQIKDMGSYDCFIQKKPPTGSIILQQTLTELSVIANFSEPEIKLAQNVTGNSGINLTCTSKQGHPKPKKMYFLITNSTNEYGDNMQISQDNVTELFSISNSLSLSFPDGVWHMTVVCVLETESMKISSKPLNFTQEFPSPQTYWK

human CD80 (recombinant) = biological target: T2, human CD80 (recombinant) (human, UniProt P33681 35-242, limits assumed, biotinylated where used in solution)
T2 construct: also called biotinylated CD80
T2 sequence (looked up): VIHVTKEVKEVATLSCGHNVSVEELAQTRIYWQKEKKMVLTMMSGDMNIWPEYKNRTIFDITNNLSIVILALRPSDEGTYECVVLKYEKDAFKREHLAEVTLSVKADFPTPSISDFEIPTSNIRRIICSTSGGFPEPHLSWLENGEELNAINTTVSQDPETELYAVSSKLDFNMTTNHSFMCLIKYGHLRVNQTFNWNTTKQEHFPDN

[1] = biological target: T3, human CD86 (epitope mapping reagent) (human, UniProt P42081 24-247, limits assumed)
T3 sequence (looked up): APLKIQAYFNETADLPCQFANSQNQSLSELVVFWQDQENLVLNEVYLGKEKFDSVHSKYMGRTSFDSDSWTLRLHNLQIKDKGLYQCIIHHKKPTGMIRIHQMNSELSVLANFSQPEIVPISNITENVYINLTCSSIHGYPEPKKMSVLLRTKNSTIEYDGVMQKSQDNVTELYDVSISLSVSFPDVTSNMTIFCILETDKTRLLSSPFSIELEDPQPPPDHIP

Measured: binding result

B1: human CTLA4 mutant ADS42AAA displayed on yeast (receptor)
chain: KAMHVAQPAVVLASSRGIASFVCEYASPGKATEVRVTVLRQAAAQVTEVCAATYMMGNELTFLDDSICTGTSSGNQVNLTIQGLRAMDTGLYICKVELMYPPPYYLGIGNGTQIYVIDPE
notes: A42 stays A
binds: all assays above
